The other results are listed elsewhere or left out.

For the test, the system named is PfHDP1 homeodomain (GST-tagged). The test can be described thus: gcPBM binding intensity (ln(normalized median fluorescence intensity)); higher = stronger DNA binding. The procedure, abridged: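 GST-tagged P. falciparum DNA-binding domains produced in E. coli were incubated for 1 h on an Agilent 4 × 180k array of primer-extended double-stranded 36-bp intergenic genomic probes with negative controls. Binding intensity is the highest Masliner-normalised natural-log median intensity across replicate spots of either probe orientation, with bound protein detected by Alexa488 anti-GST antibody at 488 nm.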
“ATATATATTTATAATCGTACGTACCTAACAATACAA [XGTACX_site4510]”: the “gcPBM binding intensity (ln)” value was 7.04.

As to “TTCTATTTATATGTGGGTACTAATTTTTTTTCTTTT [XGTACX_site7104]”, the “gcPBM binding intensity (ln)” value was determined as 6.52.

As for “TTTTATATGTTATATACACACATATAAATAAATATA [CACACA_site7418]”, the “gcPBM binding intensity (ln)” value turned out to be 6.69.

On to “AAAAAAAAATTAAAATGTACACATAAAAAAAAAAAA [XGTACX_site794]”, for which the “gcPBM binding intensity (ln)” value amounted to 6.14.

As to “AAAAATAAATAAATATGTACATATATACATATATAT [XGTACX_site5892]”, the “gcPBM binding intensity (ln)” value worked out at 6.42.

For “TATATCATATAAAACCGTACATACATACTTAATTGT [XGTACX_site6822]”, the “gcPBM binding intensity (ln)” value is 6.33.

Turning to “ATCTATATTCATAATACACACATTCTGTAGCATTAT [CACACA_site7058]”, the “gcPBM binding intensity (ln)” value came to 6.92.

For “TGATTAATTTTTAAATGTACTTAAAAATATACTTAT [XGTACX_site2872]”, the “gcPBM binding intensity (ln)” value was determined as 6.25.

Consider “TAACATATGGGACACACATGCAACTGTTATATGTCC [TGCATGCA_site959]”, for which the “gcPBM binding intensity (ln)” value turned out to be 6.75.

Turning to “AGAAAACATATGTTTTGTACTTAAGAAAAAAAAAAA [XGTACX_site4231]”, the “gcPBM binding intensity (ln)” value turned out to be 6.58.

Take “AACAGGTCATAATTTACACACTATATATTTTATTAT [CACACA_site670]”: the “gcPBM binding intensity (ln)” value was determined as 7.03.

As for “TATAAAATTTTTAAAAGTACATATTTTACATAATAC [XGTACX_site2193]”, the “gcPBM binding intensity (ln)” value was found to be 6.11.

With “TTTTTATCAACAAATAATACCATAACTCATATTTAT [CACACA_negctrl_site740]”, the “gcPBM binding intensity (ln)” value amounted to 6.29.

As to “ATTATTCCATATTATTGTACTTTAATTTTTTAAACC [XGTACX_site2960]”, the “gcPBM binding intensity (ln)” value was 6.67.

Turning to “ATATATAATATATATTGTACAGGTATGTCTATAAAT [XGTACX_site2243]”, the “gcPBM binding intensity (ln)” value was determined as 6.62.

Regarding “GAGAGGTATCAAAAATGTACACATATATATATGTAT [XGTACX_site5611]”, the “gcPBM binding intensity (ln)” value amounted to 6.35.

Turning to “TTTTTTCTTTATTATGGTACGTATAAAAAAATTATA [XGTACX_site3433]”, the “gcPBM binding intensity (ln)” value was found to be 6.35.

“AAAAAAAAAACACGCGCACACACACCCACCCACCCA [CACACA_site8689]”: the “gcPBM binding intensity (ln)” value worked out at 6.97.

Take “ACTAATAAAGGTGTAATACACACTATAAAAAGGAAT [CACACA_site1124]”: the “gcPBM binding intensity (ln)” value was determined as 7.21.

Regarding “TGTTGATTTATCCTGTGTACGGATATATATCTTTCA [XGTACX_site7826]”, the “gcPBM binding intensity (ln)” value turned out to be 6.23.

On to “TAAAGAATATTATAAACACACACTTTATAAAGAATT [CACACA_site114]”, for which the “gcPBM binding intensity (ln)” value stood at 6.46.

As for “GTAATTATACATATTACACACTCTCTTGATCTTTTT [CACACA_site7756]”, the “gcPBM binding intensity (ln)” value was determined as 6.41.

As to “TATATAAAGAAACACACACACACCTTATAATTATTA [CACACA_site4062]”, the “gcPBM binding intensity (ln)” value was 6.9.

TTTATCTAAATATGTGTGCACTCGTTAATTTTTTTT: the “gcPBM binding intensity (ln)” value stood at 10.8.

With “TATATAAACCCACCTACACACACAACGTAAATGCAT [CACACA_site8702]”, the “gcPBM binding intensity (ln)” value came to 7.06.

For the origin of these results see the supplement of paper PMC11417369.
